Source: PubChem BioAssay (NCATS)
Inconclusive means that the source gave no clear call. Such entries were picked first, then a sample of the others. Potencies of inconclusive entries are doubtful fits and often do not repeat. Active and inactive are the calls of the source. The call rests on the fitted dose curve; in most records, active means well fitted inhibition curve with a large enough effect; inconclusive means small, poorly fitted or top-dose-only effect; inactive means no such curve, though single readings can be large or run the other way.

Molecular target: Rap guanine nucleotide exchange factor 3 (Homo sapiens) (UniProt O95398)
Experiment: Confirmatory qHTS for antagonist of cAMP-regulated guanine nucleotide exchange factor 3 (EPAC1) (AID 1645880); further: nearly all actives have a fitted effect of over 55% in size
Conditions: EPAC1 Rap1B-BODIPY-GDP exchange, fluorescence; series mostly up to 115 µM
Method in brief: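 Nucleotide exchange uses 100 nM EPAC1, 250 nM RAP1B-BODIPY-GDP and 50 uM GDP, with compounds in a concentration-titration series. After 5 min at room temperature, fluorescence (480 nm ex/540 nm em) is read every 5 min for 30 min. Data are normalized to control ATA and DMSO.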
Potency means the concentration at half of the fitted maximal effect; tags describe the fitted curve by direction and shape.

Chain of UniProt O95398 (O95398 whole entry, looked up): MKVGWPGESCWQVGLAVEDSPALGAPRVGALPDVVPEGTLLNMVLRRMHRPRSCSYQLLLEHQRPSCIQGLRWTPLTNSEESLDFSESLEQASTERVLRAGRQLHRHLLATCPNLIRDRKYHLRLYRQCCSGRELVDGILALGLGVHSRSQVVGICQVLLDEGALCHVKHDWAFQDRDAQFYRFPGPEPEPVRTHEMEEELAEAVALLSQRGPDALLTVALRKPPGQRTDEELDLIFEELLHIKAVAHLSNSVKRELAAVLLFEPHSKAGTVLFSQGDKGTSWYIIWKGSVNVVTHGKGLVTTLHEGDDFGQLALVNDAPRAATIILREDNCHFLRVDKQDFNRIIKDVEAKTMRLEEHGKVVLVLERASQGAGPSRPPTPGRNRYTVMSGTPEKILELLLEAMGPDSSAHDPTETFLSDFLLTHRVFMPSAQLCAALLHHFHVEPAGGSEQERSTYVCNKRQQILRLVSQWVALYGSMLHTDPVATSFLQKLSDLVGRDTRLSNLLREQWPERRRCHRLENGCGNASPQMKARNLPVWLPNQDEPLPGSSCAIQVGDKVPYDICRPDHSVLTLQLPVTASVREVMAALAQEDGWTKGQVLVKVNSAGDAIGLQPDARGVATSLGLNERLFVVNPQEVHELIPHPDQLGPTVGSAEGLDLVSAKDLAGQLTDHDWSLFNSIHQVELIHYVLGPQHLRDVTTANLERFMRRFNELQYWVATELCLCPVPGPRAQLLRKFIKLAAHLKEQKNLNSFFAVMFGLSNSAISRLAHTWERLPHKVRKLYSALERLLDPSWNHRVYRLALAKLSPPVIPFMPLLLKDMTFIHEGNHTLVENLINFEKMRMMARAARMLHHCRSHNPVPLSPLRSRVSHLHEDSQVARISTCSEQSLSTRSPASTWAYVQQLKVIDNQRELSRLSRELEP

Potency, active:
COc1ccc(CCNC(=O)CCc2nc3sc4c(c3c(=O)[nH]2)CCCC4)cc1 84.9 µM
O=C1N/C(=N/NC(=O)c2cccc3ccccc23)S/C1=C\c1ccccc1OCc1ccccc1 3.55 µM
N#C/C(=C/c1ccc(O)c(O)c1)C(=O)NCc1ccc(Cl)cc1 12.6 µM

Potency, inconclusive:
C/C(CC(=O)N1CCCC1)=N\NC(=O)c1cc2ccccc2cc1O 84.9 µM [inhibitor, partial curve]
CC1(Cc2cc(Cl)ccc2C(F)(F)F)C(=O)Nc2cc(F)ccc21 (configuration not stated) 35.5 µM [inhibitor, partial curve]
CC1(Cc2ccc(OC(F)(F)F)cc2)C(=O)Nc2ccc(OC(F)(F)F)cc21 (configuration not stated) 22.4 µM [inhibitor, partial curve]
COc1ccc(OC)c(C(=O)/C=C/c2ccccc2C(F)(F)F)c1 15.1 µM [inhibitor, full curve]
FC(F)(F)c1cccc(CN2CCC(c3cc(-c4cccs4)n[nH]3)CC2)c1 42.6 µM [inhibitor, partial curve]
CCCCNC(=O)COC(=O)c1c2c(nc3ccccc13)CCC2 37.9 µM [inhibitor, partial curve]
O=C(Nc1ccccc1N1CCCCC1)c1cnccn1 3.16 µM [inhibitor, partial curve, poor fit]
Cc1ccnc(NC(=O)C2CCN(S(=O)(=O)c3cccc(C(F)(F)F)c3)CC2)c1 23.9 µM [inhibitor, partial curve, poor fit]
O=C(Nc1c2c(nc3ccccc13)CCCC2)c1ccccc1F 50.1 µM [inhibitor, partial curve]
CC(C)(C)C(=O)Nc1cccc(C(=O)OCc2cc(=O)n3nc(C4CCCCC4)sc3n2)c1 95.3 µM [inhibitor, partial curve, poor fit]
O=C(Nc1nc2ccccc2[nH]1)C1CCN(S(=O)(=O)c2cccs2)CC1 95.3 µM [inhibitor, partial curve, poor fit]
COc1ccc(NC(=O)CSc2nc3sc4c(c3c(=O)n2-c2ccc(OC)cc2)CCN(C)C4)cc1 50.1 µM [inhibitor, partial curve, poor fit]
CCOC(=O)C1Oc2ccccc2C(c2ccc(OC)cc2)=C1C(=O)OC (configuration not stated) 75.7 µM [inhibitor, partial curve, poor fit]
O=C(O)/C(=C\c1ccc(-c2ccc(F)cc2)o1)c1ccccc1 84.9 µM [inhibitor, partial curve]
N#C/C(=C\c1ccc(OCc2ccc(C(=O)O)cc2)cc1)C(=O)N1CCOCC1 84.9 µM [inhibitor, partial curve]
O=C(O)c1cc(NN=Nc2cccc([N+](=O)[O-])c2)cc([N+](=O)[O-])c1 63.1 µM [inhibitor, partial curve, poor fit]
CC(C)c1ccc(C2=CC(c3cccc(Cl)c3)n3ncnc3N2)cc1 (configuration not stated) 84.9 µM [inhibitor, partial curve, poor fit]
Cc1ccc2oc(=O)n(CCOc3ccccc3C)c2c1 10 µM [inhibitor, partial curve, poor fit]

Potency, inactive:
CCCSc1nc(C)cc(C)c1S(=O)(=O)c1ccccc1C
COc1cc(C)c(S(=O)(=O)N2CCCC2)cc1C(C)C
COc1ccc(N(C(=O)c2ccco2)S(=O)(=O)c2cc(OC)ccc2OC)cc1
CCc1nc2c(OCc3ccc(C(=O)OC)cc3)cccn2c1N(C)C(=O)CC(C)C
CCOC(=O)c1ccc(NC(=O)CSc2nc(=O)n3cccc(C)c3n2)cc1
COc1cc(C2c3c(oc4ccccc4c3=O)C(=O)N2c2nc(C)c(C)s2)ccc1O (configuration not stated)
Cc1cc(C)c2nc(C)cc(Nc3ccc(C(=O)NCCO)cc3)c2c1
CCOC(=O)c1cnc2ccc(OC)cc2c1Nc1ccc(N2CCN(C)CC2)cc1
NNC(=O)c1cccc(COCC(F)(F)C(F)F)c1
COC(=O)/C(N=Nc1cccc(C(F)(F)F)c1)=C(\C)O
Cc1ccc(-n2nc3c(=O)n(CCCC(=O)NCc4ccccc4C)nc(C)c3c2C)cc1
